Whole data set: some 33,000 sequences, median “E-score (dimensionless, -0.5 to 0.5)” near -0.058, cut for the highest 2% near 0.35. Some of the results follow.
Tested on: MvaT
Test: PBM 8-mer E-score (mean of HK and ME arrays) (E-score (dimensionless, -0.5 to 0.5)); higher = stronger relative binding preference; most listed sequences are background and not binding sites
In short: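 Full-length P. aeruginosa MvaT carrying an N-terminal glutathione S-transferase tag was tested by protein binding microarray following a previously described protocol. Two universal double-stranded 60-mer arrays, ME and HK, were used, each with a constant 25-mer primer region and a variable 35-mer region covering all 8-mers. The rank-based E-score is the mean of the two arrays, parsed with a custom script. Its range runs from -0.5 to 0.5 for each 8-mer.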

Row | Sequence | PBM 8-mer E-score
1 | GGCGTTCA | -0.149
2 | ACTCTTAT | 0.208
3 | GCGGTAGA | -0.049
4 | TATACAGA | 0.296
5 | CGCATACA | 0.179
6 | GACCGTTA | 0.12
7 | TCAGGACA | -0.158
8 | CGCGTCTC | -0.196
9 | CATCGCAC | 0.0662
10 | CCCCCCTC | -0.342
11 | TATAGTAA | 0.342
12 | TAGTACGA | 0.188
13 | ACCAATTA | 0.25
14 | GACAACAC | 0.0942
15 | CGAGTCGC | -0.2
16 | AAGCGCAT | 0.0214
17 | ACGGAGGC | -0.252
18 | GGAGTTGA | -0.0727
19 | GATCACGC | -0.153
20 | TCCCGCAA | 0.0151
21 | CGTGACGA | -0.32
22 | ACACTACA | 0.119
23 | ACTCTCCG | -0.142
24 | TATTACCA | 0.263
25 | CTCCTAGC | -0.143

Row | Sequence | PBM 8-mer E-score
26 | ACGAATAG | -0.029
27 | CCAGTAGG | -0.202
28 | AGTGCTGC | -0.195
29 | CAGTTATC | 0.131
30 | AAAATCTA | 0.0355
31 | AAACTCTA | 0.135
32 | CAGGTTAA | 0.0719
33 | CTATGAGA | -0.0448
34 | ACGAGAGA | -0.0673
35 | ATGATGGC | -0.151
36 | AGCTACAA | -0.035
37 | GATGCTAC | -0.201
38 | CCCGTGCC | -0.187
39 | AGCGGCCA | -0.134
40 | CGATCCCC | -0.314
41 | AAAATAGA | 0.173
42 | ATTCAGTC | 0.0824
43 | AAATCACA | 0.131
44 | TCTCTGAA | -0.0253
45 | GCTCTACC | -0.19
46 | AAAAAGAA | 0.317
47 | AGTATCCC | -0.128
48 | AACATTGT | 0.172
49 | AATGAAAT | 0.23
50 | AACTCGGT | -0.0107

Row | Sequence | PBM 8-mer E-score
51 | ACATGATG | 0.0401
52 | AATTACGG | 0.301
53 | ATAGAATC | 0.0155
54 | GTTTTTAA | 0.23
55 | ACCCCTCG | -0.181
56 | GCTCCACC | -0.234
57 | AGCTCAAC | -0.0559
58 | AGTGACTG | -0.0444
59 | ACCGTCGG | -0.206
60 | ATCGCCGG | -0.169
61 | AACCCATA | 0.0666
62 | ACCATGTG | -0.192
63 | TCCCATCA | -0.0548
64 | AAAGCGTC | -0.00535
65 | ATAATTAG | 0.429
66 | GGCATGTA | 0.0178
67 | TATGGTAA | 0.222
68 | GCGTGGAA | -0.139
69 | GTACAAAC | 0.175
70 | CATAACCA | 0.0892
71 | ATTAGTGA | 0.225
72 | GTGAGTCA | -0.199
73 | AACGAGTC | -0.0958
74 | AGCATTGG | -0.268
75 | AGCCTCGC | -0.215

Row | Sequence | PBM 8-mer E-score
76 | GTAAGAAA | 0.2
77 | CATCCACC | -0.167
78 | CCAGACCG | -0.161
79 | AAAGTACT | 0.25
80 | CCCACAGC | -0.26
81 | AGCCCGGC | -0.312
82 | AGGAGAGA | -0.105
83 | CAAAAGTG | 0.0592
84 | CGCTGTCC | -0.207
85 | GAGACTCC | -0.164
86 | AAAGAGTG | 0.00642
87 | CACTGCGC | -0.173
88 | AGTAAAAG | 0.22
89 | GTCCACTA | 0.0598
90 | CGAAAGTC | -0.0957
91 | GTCAAGTA | 0.0656
92 | AGTCGGTA | -0.0292
93 | ATTGCGAA | 0.148
94 | AACCCAGG | 0.00834
95 | GGTGGTAA | -0.0265
96 | TGGAAGAA | -0.0513
97 | ATCATGCC | -0.105
98 | ACTCTACC | 0.0756
99 | ACAGCTAA | 0.053
100 | ATTAGGTG | 0.227

Row | Sequence | PBM 8-mer E-score
101 | GAACAAGC | -0.0473
102 | ATCATTAG | 0.00779
103 | GAAAAGCC | -0.0242
104 | ATCATACA | 0.183
105 | ACCTGGTA | -0.102
106 | GCGGCCCC | -0.285
107 | TGTTTAAA | 0.387
108 | TATGGGCA | 0.0621
109 | CGCGTGTC | -0.108
110 | GGATTTCA | 0.0657
111 | ATTTTAGC | 0.13
112 | AGGTCAGG | -0.135
113 | ATCTGGAC | -0.0431
114 | AGCGGGAG | -0.185
115 | ATATCCCC | -0.0141
116 | GGGTCACC | -0.173
117 | CAGATCGC | -0.19
118 | AGCAGCTC | -0.196
119 | ATGGGTCC | -0.174
120 | AGGGCTAC | -0.209
121 | GCACGCTA | -0.097
122 | CTTGGTCA | -0.14
123 | CGCTCATC | -0.201
124 | GCGGAAGA | -0.182
125 | AAAACTGT | 0.0621

Row | Sequence | PBM 8-mer E-score
126 | AAACTTAC | 0.306
127 | AGCTAAAC | 0.11
128 | CGTCCTCC | -0.424
129 | CGTTATGA | 0.0719
130 | ATCTAGTC | -0.0232
131 | ATGGGATC | -0.0131
132 | CCCCACCA | -0.257
133 | GACGCTAA | -0.0445
134 | GCACTGCA | -0.113
135 | AGAGTCGA | -0.0162
136 | CTGACGAA | -0.0586
137 | AGCAAACC | 0.0452
138 | ACGGTCCC | -0.249
139 | GCCGGCTA | -0.154
140 | CGGTCACG | -0.177
141 | CAGATAAG | 0.138
142 | ACAGGGCA | -0.18
143 | GTCTTATA | 0.325
144 | GGTATTCA | -0.0547
145 | CACCTGTC | -0.218
146 | AGCACTCC | -0.0752
147 | CGCGCTGC | -0.294
148 | CCCGCTGC | -0.273
149 | CTGGAACA | 0.00992
150 | GCGCTGCA | -0.246

Row | Sequence | PBM 8-mer E-score
151 | GTCCCGCA | -0.134
152 | GACTCACA | -0.0935
153 | CTGAACAG | -0.176
154 | AGTTGATA | 0.26
155 | AGTCACTC | -0.134
156 | ACGCGAAA | 0.0806
157 | CTCGATCA | -0.161
158 | AGTGTAAC | 0.186
159 | CACGCACA | -0.134
160 | GCCACACA | -0.0199
161 | GAAGAATA | 0.27
162 | CGGGGACG | -0.127
163 | ACTGTGTC | -0.135
164 | ACGAACAA | 0.151
165 | AATTAGGG | 0.137
166 | CTGGCTAA | -0.116
167 | CAATGGTA | 0.0333
168 | AGGGAGCC | -0.292
169 | ACAATCAC | 0.00599
170 | ATTCGAAC | 0.134
171 | GCGCACGC | -0.0974
172 | GCAGGCGC | -0.28

Source: the supplement of paper PMC4466236
